According to PubChem BioAssay AID488969 (Vanderbilt High Throughput Screening Facility, 2010):
Over roughly 110,000 compounds, “z-score” has its median near -0.1; the highest 2% begin near 2. The list shows a part of the results. Activity calls are given as the source filed them.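 The calls were made as follows: active = z-score in the third read window above 3 or below -3; inactive = the rest.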

biological target: Metabotropic glutamate receptor 8 (Rattus norvegicus) (UniProt P70579); test: mGluR8 Gi/Go-coupled signaling modulation – cell-based, rat, thallium flux, HTS, primary screen (AID 488969); conditions: HEK293 rat mGluR8, GIRK (G protein-gated inwardly rectifying potassium channel) thallium flux, FluoZin2; at 10 µM; stronger effect = higher value
UniProt P70579, sequence (P70579 whole entry, looked up): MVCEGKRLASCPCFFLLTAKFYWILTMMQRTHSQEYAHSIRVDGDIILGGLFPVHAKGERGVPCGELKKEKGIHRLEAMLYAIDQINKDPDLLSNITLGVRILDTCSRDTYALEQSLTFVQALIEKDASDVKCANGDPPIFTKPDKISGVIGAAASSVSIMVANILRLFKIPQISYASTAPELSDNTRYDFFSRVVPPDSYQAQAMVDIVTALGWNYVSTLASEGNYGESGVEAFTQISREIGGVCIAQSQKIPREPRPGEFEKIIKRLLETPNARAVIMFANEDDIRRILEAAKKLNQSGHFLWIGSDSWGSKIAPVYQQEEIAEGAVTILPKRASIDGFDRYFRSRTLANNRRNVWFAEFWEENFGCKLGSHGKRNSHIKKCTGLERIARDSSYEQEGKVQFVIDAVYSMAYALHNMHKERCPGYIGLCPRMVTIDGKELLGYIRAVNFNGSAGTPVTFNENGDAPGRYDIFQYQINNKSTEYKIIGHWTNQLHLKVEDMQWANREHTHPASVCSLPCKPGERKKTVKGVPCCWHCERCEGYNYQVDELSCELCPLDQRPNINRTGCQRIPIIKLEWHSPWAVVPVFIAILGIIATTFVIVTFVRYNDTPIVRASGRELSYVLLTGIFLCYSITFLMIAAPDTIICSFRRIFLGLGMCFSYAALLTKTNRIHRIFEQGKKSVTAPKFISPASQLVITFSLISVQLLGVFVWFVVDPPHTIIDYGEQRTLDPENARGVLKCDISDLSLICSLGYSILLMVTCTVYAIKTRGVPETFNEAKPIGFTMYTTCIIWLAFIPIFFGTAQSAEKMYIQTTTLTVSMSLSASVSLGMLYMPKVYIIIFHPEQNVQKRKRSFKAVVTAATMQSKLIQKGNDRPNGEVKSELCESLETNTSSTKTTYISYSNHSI

SMILES | z-score
O=C1C(c2ccccc2)=C(N2CC2)c2ccccc21 | -1.21
CCOC(=O)c1c(C)n(Cc2ccco2)c2c1cc(O)c1ccccc12 | -0.278
O=c1[nH]c(=S)n(C2CC2)c(O)c1/C=N/Nc1cccc2ccccc12 | -0.443
C=CCn1c(O)c(C(C)=Nc2cc(OC)ccc2OC)c(=O)[nH]c1=O | 0.472
CCOc1ccc(-n2c(O)c(C=Nc3ccc(N(CC)CC)cc3)c(=O)[nH]c2=O)cc1 | -0.113
Cc1cccn2c(=O)c3c(nc12)N1CCc2ccccc2C1C1(C3)C(=O)NC(=O)N(C)C1=O (stereo not drawn) | 0.0769
COc1ccccc1N1C(=O)NC(=O)C(CCc2ccncc2)(CCc2ccncc2)C1=O | -0.189
COc1ccc(Oc2cc(NC(=O)c3nn(C)cc3[N+](=O)[O-])cc([N+](=O)[O-])c2)cc1 | 0.113
COc1ccccc1N1C(=O)NC(=O)/C(=C/c2ccc3c4c(cccc24)CC3)C1=O | -0.188
O=C(CN1C(=O)CN=C(c2ccccc2)c2ccccc21)NCc1ccco1 | -0.206
C/C(=N\N1CCCCC1)c1c(O)[nH]c(=O)[nH]c1=O | -0.253
N#CCCn1cc(C(=O)Nc2ccccc2Cl)c(-c2ccc([N+](=O)[O-])cc2)n1 | -0.0927
CC1C(c2cccs2)=[N+]([O-])C(C)(C(=O)c2ccc(Cl)cc2)N1O (stereo not drawn) | -0.0472
CC[N+](CC)(CC)CCCOC(=O)C(O)(c1ccccc1)C1CCCCC1 (stereo not drawn) | -0.382
CCCNS(=O)(=O)c1ccc(OCC(=O)N2CCN(Cc3ccc4c(c3)OCO4)CC2)cc1 | -0.266
Cc1cc(C)cc(NC(=S)NC2CC3CCCC(C2)N3Cc2cccs2)c1 (stereo not drawn) | -0.0992
CSC1=NP(=S)(SC)N(C)c2nc3n(c21)CCC3 (stereo not drawn) | -0.0735
CC(=NCCN1CCCCC1)c1c(O)[nH]c(=O)[nH]c1=O | 0.977
CC12CN3CC(C)(CN(C1)P3(=O)Oc1ccccc1)C2=O (stereo not drawn) | 0.378
CC(=NCc1cccnc1)c1c(O)n(-c2ccc(C)cc2)c(=O)[nH]c1=O | -0.652
Cc1ccc(S(=O)(=O)NC(Cc2cnc[nH]2)C(=O)O)cc1 (stereo not drawn) | -0.137
C=CCn1c(O)c(/C=C/C=Nc2ccccc2)c(=O)[nH]c1=O | 0.36
CCC(=O)N1CC(=O)Nc2ccc(F)cc2C1c1ccccc1 (stereo not drawn) | 0.0508

SMILES | z-score
CN(C)C(=O)NC(O)C(Cl)(Cl)Cl (stereo not drawn) | 0.074
Cc1cc(N2CCCCC2)ccc1C=C1C(=O)N(C)C(=S)N(C)C1=O | -0.258
COC(=O)c1ccccc1-n1c(C)nc2ccccc2c1=O | -0.159
CCCCCCCSc1cc(OC)c(CCN(C)C)cc1OC | 0.395
Cc1cc(OCc2cc(C(=O)O)oc2C)c2c3c(c(=O)oc2c1)CCCC3 | -1.35
COc1cc(C2SCC(=O)Nc3c2c(=O)[nH]n3C2CCCCCC2)cc(OC)c1OC (stereo not drawn) | 1.01
COc1ccccc1CN1CCN(C(=O)COc2ccccc2)CC1 | -0.147
CN1CCN(c2ccc([N+](=O)[O-])c3cccnc23)CC1 | 0.358
Cn1c(C(=O)N2CCC3(CC2)OCCO3)cc2c(=O)n(C)c3ccccc3c21 | -0.00183
Cc1cc(CN(C)C)c(OC(=O)N(C)C)cc1C | -0.351
CC(C)OC(=O)C1C(=O)NC2(C)CC1c1ccccc1O2 (stereo not drawn) | -0.285
CCN(CC)c1ccc(CN(C)CCc2ccc(OC)c(OC)c2)cc1 | -0.494
CCCCn1c(O)c(C(CC)=Nc2ccc(OC)cc2OC)c(=O)[nH]c1=O | -1.4
O=C1NC(=O)C(CCc2ccncc2)(Cc2ccc([N+](=O)[O-])cc2)C(=O)N1 | -0.19
CC1=C(C(=O)OC(C)C)[C@]2(C(=O)N(CC(N)=O)c3ccccc32)C(C#N)=C(N)O1 | -0.0303
C/C(=N\N1CCCCCC1)c1c(O)n(-c2ccccc2)c(=O)[nH]c1=O | 0.346
CSCCC(N=Cc1c(O)n(-c2ccc(Br)cc2)c(=O)[nH]c1=O)C(=O)OC(C)(C)C (stereo not drawn) | -0.692
CCCCCCn1c(O)c(C=NCCCn2ccnc2)c(=O)[nH]c1=O | -0.0425
CC(C)N(CC#CCC1(O)c2ccccc2-c2ccccc21)C(C)C | 0.341
CN1CCN(Cc2cc(C(C)(C)C)c(O)c(C(C)(C)C)c2)CC1 | -0.182
COc1ccc2nc(NC3=NCCN3)sc2c1 | 0.0288
Nc1c(C(=O)OCc2ccccc2)c2nc3ccccc3nc2n1Cc1cccs1 | 0.248
CC(=O)c1c(C)[nH]c(C(=O)N2CCC3(CC2)OCCO3)c1C | 0.216

SMILES | z-score
Fc1cccc(C2NCCc3[nH]cnc32)c1 (stereo not drawn) | -0.0834
C=CCn1c(O)c(C(CC)=Nc2ccc(N(CC)CC)cc2)c(=O)[nH]c1=O | -0.258
Cc1ccc(S(=O)(=O)N2CN3CCN(C3)C2)cc1 | -0.0613
CC(=NCC1CCCO1)c1c(O)n(-c2ccc(C)cc2)c(=O)[nH]c1=O (stereo not drawn) | 2.68
O=C1C2CCN(CC2)C1Cc1ccc(OCCOc2ccccc2)cc1 (stereo not drawn) | 0.571
O=C(Nc1ccccc1)NC1CC2CCC(C1)N2 (stereo not drawn) | 0.293
CCn1c(O)c(/C=N/NC(=O)c2ccncc2)c(=O)[nH]c1=S | -0.229
CCOc1ccc(C2(C#N)CC[N+](C)(C)CC2)cc1 | -0.105
CCN1CCN(c2ncnc3ccc(Br)cc23)CC1 | 0.327
O=C(Cc1ccccc1)N1CCN(C2CCCC2)CC1 | -0.0866
C=Cn1ccnc1P(=S)(c1nccn1C=C)c1nccn1C=C | -0.442
O=P(O)(O)COc1ccccc1O | -0.166
O=C(Nc1ccc(Cl)cc1C(=O)c1ccccc1Cl)c1ccco1 | -0.383
Cc1ccccc1-n1c(-c2ccc([N+](=O)[O-])cc2)nc2ccccc2c1=O | -0.343
C=CCn1c(O)c(C(C)=Nc2ccc(C(=O)OCC)cc2)c(=O)[nH]c1=O | -1.3
O=c1c2cc([N+](=O)[O-])ccc2nc(CN2CCOCC2)n1-c1ccccc1F | -0.0712
O=C(Cc1ccccc1)N1CCN(C/C=C/c2ccccc2)CC1 | active: 3.68
CCOC(=O)C(NC(=O)CC)(Nc1ccc(C(O)(C(=O)OCC)C(F)(F)F)cc1C)C(F)(F)F (stereo not drawn) | 0.000549
C=CCn1c(O)c(/C=N/N2CCOCC2)c(=O)[nH]c1=S | 0.434
C=C(C)CSc1nnc([C@@H](N)Cc2c[nH]c3ccccc23)o1 | 0.789
O=C1c2ccccc2C(=O)N1Cc1nc2ccccc2c(=O)n1-c1ccccn1 | -0.323
CCOC(=O)c1ccc(N2C(=O)CC(N3CCC(C#N)(c4ccccc4)CC3)C2=O)cc1 (stereo not drawn) | -0.383
